Laboratory results reported in the supplement of paper PMC10126150.
Values marked as one replicate rest on one cluster of the flow cell; about a third of the high ones do not repeat.

Test system: ATP
Experiment: switch fluorescence ratio, 500 uM ATP over buffer (Cy3 cluster intensity, sum of 5 cycles each) (fold (ratio)); higher = stronger signal-on switching upon ATP binding; sequences stand for … in TCGTCGGCAGCGTCAGATGTGTATAAGAGACAGTTTTTTTTTTTTTTTTTTTTTTTTT…TC
Conditions: aptamer strand: ATP DNA aptamer (quencher-CACCTGGGGGAGTATTGCGGAGGAAGG + anchor), 100 nM annealed; ATP concentration: 500 uM; one replicate
Outline: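 Values give the fluorescence ratio for each switch-domain sequence, averaged from per-cluster ratios of summed target-cycle to summed buffer-cycle Cy3 intensity. The Cy3-labelled switching-strand clusters sat on a modified Illumina MiSeq flow-cell, were annealed to 100 nM quencher-labelled ATP aptamer, and were imaged in selection buffer, then after 15 min with 500 uM ATP at 22 °C. Five cycles ran with NaOH stripping and re-annealing between them, and clusters outside 100-1000 RFU were excluded.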
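Also: ATP exposure 15 min at 22 °C before imaging.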

Sequence | switch fluorescence ratio
TAAAGATCAG | 0.952
TAGTTGGTCA | 0.976
CCGACTGGAT | 1.19
AGATTTTACA | 0.967
GACGATCATC | 1.08
ACTTAGTAA | 1.07
TAGCTGTGCC | 1.02
CGCTTCATTG | 1.04
ACCCTTTATA | 1.03
TATAGGAGTC | 0.975
GGTACAGCAT | 1.01
CGTGAGGGCA | 1.04
ACACGGTGGT | 1.05
CATTGGTCA | 0.99
TGTACGGCAT | 1.07
ACTGTAGCGT | 1.16
ACAACTTTAC | 1.14
CGCATCTCGA | 1.12
CTGTGCCGCC | 1.03
ATACTAAGGA | 0.995
GAGGTGCAA | 1.11
AGGATAGCAG | 0.991
ATTCCAGTCT | 0.997

Sequence | switch fluorescence ratio
TGGCCCACTC | 1.02
AACACTCTTT | 1
CGACATTATT | 1.06
GAGTGGCCAG | 0.982
CAGAACCTGT | 1.05
GGCTGGAACA | 1.02
GGGCGCCTTA | 0.989
TTTCGTAAGC | 1.24
CAACCCGGCG | 1.04
GAGCGGATCA | 0.97
TGTTTCTTCT | 0.987
ACGTGGGAG | 1.02
TGTCCTTGGC | 0.995
CTACACTCCC | 1.72
CCTGATTATG | 0.992
AATTCCCAGG | 4.49
TAACCGGGCC | 1.09
AAAGAGAGT | 0.985
TATGTGCATT | 0.953
GTTCTTGTTG | 0.996
ACGTGATGCG | 1.11
GGGAAATGGA | 0.987
GGCCCAGACA | 0.954

Sequence | switch fluorescence ratio
GAGCTATTAT | 1.06
TGCGTTTTCT | 0.957
TTCCTTTTG | 0.967
CGCTTACTGA | 1.24
CCTGTCATAG | 1.14
CTAAGCTCTC | 1.1
ATGTTACTTC | 1.02
GTTTGGTTAC | 1.08
TATCTTGAAG | 1.03
CCTGCCCGGG | 1.04
GGTAAACAGA | 1.05
AAGTATTATA | 0.99
TAATTAGCTT | 1.01
GGCTTGGTGC | 1
GGACACAATG | 1.05
TCGGGATTGC | 1.07
GGACATAGT | 0.97
CGTAATGTGT | 0.987
CCGGGTGGCG | 1.01
TGATGAACAC | 1
AGAGCTTCGG | 1.04
AGGATCCCGA | 1.06
GTCAACAGGA | 0.998

Sequence | switch fluorescence ratio
CGGGACGTAA | 0.998
CTCGGGTCAA | 1.24
GCTGAGCGCC | 0.954
ATCGTAGATG | 1.04
GTAATATACA | 1.01
TCCCCAGGTG | 1.7
GGCGGACAAT | 0.984
TGCAAGTATC | 1.41
TATAGAGTG | 0.988
ATTCAGCTTA | 0.967
TTCGGTGATT | 0.986
GAATGAGTAG | 1.01
TAGTATCCTG | 0.943
TTATCCTGAC | 2.03
GGCACTTGCC | 0.979
GCTGGTGCGG | 0.984
TGCTGGGTGT | 1.04
CCTAGCGTTC | 2.18
TGAACAATTA | 1
TTCATTCCAG | 1
TAAAACTGCT | 0.973
CGGGCCCAAG | 1.03
ATGGGCTTTT | 0.985

Sequence | switch fluorescence ratio
CTCGCACGCC | 1.64
CGACGAACAA | 1.84
AAGTTGAGCC | 1.03
CTGATTTCGG | 1.1
ACCCCCGGGA | 1.98
ACTTATCCGT | 1.05
CTACTTAGG | 1.03
TTAGTCTCTC | 1.01
TAGATACTGG | 1.03
TCGGTTAGAG | 1.02
GGAGTAAAAC | 1.17
AGTACATTGG | 1
GGTGGGTACC | 0.999
ACGAGACCTT | 1.29
CTGCTCCTAC | 1.67
CGCATGTTGG | 0.987
CTAAAACAGT | 0.985
CCAATAGAGA | 1.01
TAGCTTTGAT | 0.963
AATAAATTTT | 0.993
TGGGAGATCA | 1.02
CATTTCCGAA | 0.999
GGGTTGCGCA | 0.973

Sequence | switch fluorescence ratio
CATGGATGTG | 0.992
TTCCGCGGGG | 1.11
GCCTTAGTAA | 1.03
CAAGTACGAA | 1.12
AGGATTAGCC | 0.998
CGCCCGGCGC | 1.06
TACCTTCTGT | 1.19
TAGCAACATT | 1.04
TGTATTCCCT | 1.01
ACTTTGCACC | 1.2
CGAGGCAGAG | 1.74
CCAGAAGAAA | 1.04
TCCGTAGATG | 1.02
GCCGGTGGCT | 0.983
AGGAAGTGCG | 0.967
CCACCATTGA | 1.09
ACTGGCGCAC | 1.2
CAACTTAAAA | 1.01
GTGAACGTAG | 1.04
CACGGGGCCG | 0.875
CCGGCCAGCG | 1.25
TTTACTTTCG | 1.02
TCTTGGTCAT | 1.03

Sequence | switch fluorescence ratio
AAGATTGGGA | 1.03
AAGGTTGAAT | 1.02
CTTATATCAG | 0.95
CACAGACATG | 1.05
CTCCAGGCAT | 3.3
CTCTTCTTAT | 0.993
TTTACCTTGT | 0.987
CAGGTGCGTA | 1.12
AGGCGGGATG | 0.96
ATTAGGCGGA | 0.997
TCTAAAAGGA | 0.936
TTAGCCTTTC | 1.66
TTCAGCCCTC | 1.07
AAAAAGGTCT | 1.02
CCACCATTAA | 1.06
TTATACGGC | 1.07
ACCTGAACT | 1.59
AAGACTTTCT | 1.02
AATTATCGTA | 1.01
